Laboratory results published in the supplement of paper PMC12632987.
Whole data set: some 4,500 sequences, median “median log2 fold change of GCK-ALFA target abundance (FLAG IP / Myc IP barcode read proportion)” near 0.078, cut for the lowest 2% near -0.6. The list shows a part of the results.

B1: GBRAP_14_3869 (protein)
chain: KEKVLEIIEKAIEDMEKEMVELLPEKAEEIKKVAEEVKKKAKELIEEEDDVEKIMEKITEYALKKVEEAFADLPPEDRAALLATAYNEFAEADLEIEEEL
B2: GBRAP_184_5092 (protein)
chain: TTLEALVEAETREEALEKLEEVLAEAAAQKANLTVLVDLKGLDVETAIELLDLAGAALAAGKVPAVTVGFANAFTEEEIDKILARADEVGVRVVLPIKEE
B3: GBRAP_43_5794 (protein)
chain: DQEWVDGAFDFARTALETPEITDEAKARIVVDAVEIAIDEGTLTPEELKELLEALREAVSPETAARALKEILEEAKKLGAPEELLKVIEEALKEAEKELA
B4: GBRAP_184_5037 (protein)
chain: MIKEEVIEAENLEELKKKLKELEEEMKNFKGDLIVHVKSPKFTEEMVEEIMKTLKRMLEEGYVSSVTVGLDGEMSEEVVDKAVELADEAGIKVVLALSEE
B5: GBRAP_160_4754 (protein)
chain: KEELKKLAEEIKEIFDEYEEILKEVPASEAPTVIRGAMGEVLMEVESSEAASDELEEEIGKIADEAEKEAEANKDKPVEYFIEVLKKAREKILKLIEEKI
B6: GBRAP_184_5071 (protein)
chain: KVFEETIEVENVEEAEEKMDELAEKIKDFKGELVVHVKMPKADKETIEVILDKLKEIKDAGYVTKVTVSFDAEFTEEEVDFALKKADERGINVTVALSEE
B7: GBRAP_78_6672 (protein)
chain: KVEEELDKAIEHLGKAAKILISMNTEEAQDILGKVVDAASILVEAEEGEADLEDVEEALKLVEEAIKEVKKIDTPEAKEAAKHLEEAAKHLKEAIKELKK
B8: GBRAP_160_4780 (protein)
chain: SEKLERLKEAIREAAEEIREAIDTETPAQVVTVARGEGGDILQEAEELGEDNEELLAGLDAQIDALVAALEAAADATPEEKRAIVDAGEAAMIALLEKHT
B9: GBRAP_160_4536 (protein)
chain: AEKVAEALARIDEERDFIISLVDEISTEELINVVDTEFGSFIMWGVEMGIFSDELEDKLDAIRDATIATLKENKDATPEEKKAIITAAADAAKAAIKAAA
B10: GBRAP_9_7124 (protein)
chain: REELVEKLKEVALDMIEDISKVVPELTEEQKEKFKKEVEKLKEEALKDKSLTPEEIKKKFKELIEKIREEVKKIVNEELKKLVDAIALTAEEEVDEIVEE
B11: GBRAP_52_5934 (protein)
chain: MKEKIKELVDELVELVKEGKLEEARKLARRIVKELSEEELKLFIEELAEKARTAPKEEIDYILEAAEILAEELDEGGWDEVLADDLLARVAAAAYENLQK
B12: GBRAP_160_4042 (protein)
chain: KEKYEKLKKFAEEEFEEAKEFVEGVTVEEAANILDVTIGEIIMEAEELGIDDEELHDKIAEIGDKAVAELLANPDLTEEEIKAIIEKAREEVLKAIEEAK
B13: GBRAP_11_2886 (protein)
chain: KKEVLKKLAELAKKIAELIEKLLKEGTDDEELLKEIEKLLEELEELTKKHADEGEKKLVEIAKELYKKALEDPENREEYLKELLAAVRVLEGQFLLEAEE
B14: GBRAP_125_3018 (protein)
chain: SEEELAEALGLIARRFGYSEAEIAELQRLAREHGLKGTLIALALSLGWEELAELLEKLSEEQVAEVVREVAEALRANPELTPEELKELMLEVAKRALEEA
B15: GBRAP_128_3283 (protein)
chain: MNEELIKKAKELIKKIVEGPLEEVPKLTKELVELMKKMSEEELDIVVDFFEEEAKKMSEEKLEAVMDTLRELRPTMDPLVQNYVADMMTILGEQLLELEE
B16: GBRAP_11_2696 (protein)
chain: KKEELKKAAELARKLAELLERLLAAGPDDEELLKEIRELAEELLKLAEKYGDKGIQTLAKILKELLEEAEADPANREEYLRQALAAARVLEGQYLLEIEE
B17: GBRAP_184_5213 (protein)
chain: TVVREAVTATTAEEAIAKAEAVVAAAQAAGKKLVLTVFAENMSLEEIREVMEHLSALKDAGRIEDATLVVTDDKSEEEIDELIAAADEYGIRLVLALPDE
B18: GBRAP_35_5532 (protein)
chain: DSDEEIAEMLLNTMEDIVLALPDVSPEQQEKLAKHLIRLAEDFIKLKTKSKELIERLIEILEEAIKIIKESDLPKEQQEELIKKLEELKEEAEKLLKEVK
B19: GBRAP_52_6224 (protein)
chain: MEEEAERLAKEILKTVKEKGVEAAVELLKEIAATHSPELVIAVLKKLVELLKDESAETAEAVLDALIAAEDALIAAGVPEEDVEDAIAAAAAVAVELLKK

The binders below were run against GABARAP, O95166 (assay: median log2 fold change of GCK-ALFA target abundance (FLAG IP / Myc IP barcode read proportion) (log2 ratio); each designed protein is fused to an ALFA-tag nanobody in HEK293 cells to bring the named protein to FLAG-tagged glucokinase (GCK); Myc marks an untargeted standard; higher = target protein stabilised (more abundant)). Conditions: target protein: 3xFLAG-MCP-GCK-ALFA reporter; HEK293 landing pad (RPLP).
Summary of the method: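 Sequencing of reverse-transcribed, amplified circular RNA barcodes from anti-FLAG and anti-Myc immunoprecipitates provided the readout for an ALFA-nanobody-fused binder library recombined into HEK293 landing-pad cells. Those cells were induced with 2 μg mL^−1 doxycycline, transfected with a plasmid expressing a FLAG-tagged target and a Myc-tagged standard, and lysed after 48 h. Target abundance is the per-binder median log2 ratio of FLAG to Myc barcode read proportions. Only barcodes at a proportion of ≥10^−7 in both replicates and binders with ≥3 barcodes per replicate were kept, with a 10^−6 pseudocount added before the two replicates were pooled.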

GABARAP, O95166, sequence (O95166 whole entry, the tested form may be a part): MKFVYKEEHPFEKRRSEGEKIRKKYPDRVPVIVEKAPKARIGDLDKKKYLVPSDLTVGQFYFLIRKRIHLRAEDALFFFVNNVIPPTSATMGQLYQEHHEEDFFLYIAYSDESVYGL

Binder	median log2 fold change
B1	0.0483
B2	0.0216
B3	0.122
B4	0.159
B5	0.163
B6	0.274
B7	0.135
B8	0.196
B9	0.146
B10	0.136
B11	-0.0862
B12	-0.0593
B13	0.0317
B14	0.388
B15	-0.282
B16	0.0786
B17	-0.103
B18	-0.0834
B19	0.149
